PubChem BioAssay AID1508624 (National Center for Advancing Translational Sciences (NCATS), 2021)
Among all 48,000 compounds or so, about 120 (0.25%) were called active. About 4% were inconclusive and are not listed. Calls come from the whole dose curve; as a rule, active = well fitted activation curve with a large enough effect; inconclusive = small, poorly fitted or top-dose-only effect, or another doubt; inactive = no such curve, though single readings can be large or run the other way. This is one part of the list.

experiment: Primary qHTS for Identification of Small Molecule Activators of Huntingtin-Antisense Promoter Activity; settings: HEK293 HTT-AS promoter firefly luciferase reporter (activity 0% = vehicle and -100% = no light), 24 h; series mostly up to 57.5 µM; activity change, positive = activation: at the top concentration; note: nearly all actives have a fitted effect of over 55% in size
Summary of the method: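 HEK293 Fluc reporter, 2,500 cells/well, 24 h pre-culture; cpds up to 57.5 uM final, 24 h 37 degrees C; Dual-Glo, 10 min RT; normalized vehicle = 0%, zero RLU = -100%.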

Activity change, positive = activation, inactive:
CCn1cc(C(=O)N(C)c2cc(C)ccc2C)c2cc(OC)c(OC)cc2c1=O -18.4%
O=S(=O)(Nc1nc2n(n1)C(c1ccc(F)cc1)C=C(c1ccc(Cl)cc1)N2)c1ccccc1 (stereo not drawn) -9.61%
CSc1nn(CC(=O)Nc2ccc(C)cc2C)c(N)c1S(=O)(=O)c1ccc(Cl)cc1 -32.4%
COc1cc2c(C(=O)N3CCN(c4ccc(F)cc4)CC3)cn(CC(C)C)c(=O)c2cc1OC -15.7%
CCOc1ccccc1NC(=O)C1CCCN(S(=O)(=O)c2cccs2)C1 (stereo not drawn) -16.3%
COc1ccc(N2CCN(C(=O)c3ccc4c(c3)CCN4S(=O)(=O)c3ccccc3)CC2)cc1 -21.6%
Cc1c(C(=O)N(C)Cc2ccccc2)sc2nc(-c3ccc(F)cc3)cn12 -33.8%
c1ccc(-c2oc3ncnc(NC[C@@H]4CCCO4)c3c2-c2ccccc2)cc1 -40%
NC(=O)c1ccc(I)c([N+](=O)[O-])c1 -1.32%
COc1cc(NC(=O)CSc2cc(=O)n(C)c3ccccc23)cc(OC)c1OC 0%
CC(NCc1ccc2c(c1)n(C)c(=O)n2C)c1ccccc1 (stereo not drawn) 11.6%
Cc1ccc(-c2cn3c(n2)sc2cc(C(=O)NC4CCCCCC4)ccc23)cc1 13.4%
COCCCNC(=O)C1CCN(Cc2cc3ccccc3n2Cc2cccc(Cl)c2)CC1 -26%
Cc1noc2ncnc(NCCc3ccccc3)c12 -61.1%
CCC12CN3CC(CC)(CN(C1)C3c1c[nH]c3ccccc13)C2=O (stereo not drawn) -31.2%
CCOC(=O)c1ccccc1NC(=O)N1CCCn2nc(C)cc21 -19.3%
Cc1cc(C)cc(N2C(=O)CSC23C(=O)N(CC(=O)NC2CCCCC2)c2ccccc23)c1 (stereo not drawn) -33.5%
COc1ccc(C(=O)Nc2cccc(OCc3cc(=O)n4c5c(sc4n3)CCCC5)c2)cc1OC 11.8%
CCc1ccc(NC(=O)Cn2c(=O)n(Cc3ccc(C)cc3)c(=O)c3cccnc32)cc1 -3.6%
CC(=O)N1CCCc2cc(S(=O)(=O)N3CCC(C(=O)N(C)C4CCCCC4)CC3)ccc21 -24.1%
Cc1ccccc1C(=O)Nc1nnc(S(=O)(=O)N2CCc3ccccc32)s1 4.35%
CCCCOc1ccccc1NC(=O)CC1Sc2ccccc2NC1=O (stereo not drawn) -33.6%
COc1ccccc1Cc1nc2ccccc2nc1SCC(=O)N1CCCCC1 -22.5%
COc1ccc(NC(=O)c2sc3nc4n(c(=O)c3c2C)CCC4)c(OC)c1 -14.9%
CCOC(=O)N1CCN(c2ncc3c(n2)CC(c2ccc(OC)c(OC)c2)CC3=O)CC1 (stereo not drawn) -16.2%
Cc1noc(/C=C/c2ccccc2F)c1S(=O)(=O)N1CCC(C(=O)NCc2ccco2)CC1 -29.5%
COc1ccc(CCNC(=O)CCc2c(C)nc3cc(-c4ccc(Cl)cc4)nn3c2C)c(OC)c1 -74.3%
N#Cc1c(-c2ccccc2)cc(-c2ccccc2)nc1SCC(O)CS(=O)(=O)Cc1ccccc1 (stereo not drawn) -39%
O=C(Cn1cc(SCc2ccc(F)cc2)c2ccccc21)N1CCCCCC1 -8.1%
O=C(CCc1ccccc1)N(Cc1cccnc1)c1nc2ccc(F)cc2s1 -3.16%
CCOCCCNC(=O)C1CCCN(c2ncnc3onc(C)c23)C1 (stereo not drawn) -30%
CCOc1ccc(NC(=O)c2cnn(-c3ccccc3)c2-n2cccc2)cc1 -20.2%
CCN(CC)C(=O)CSc1nc2c(c(=O)n(C)c(=O)n2C)n1Cc1ccccc1 7.76%
COc1ccc(OC)c(CCNC(=O)c2cnn(-c3ccccc3)c2-n2cccc2)c1 -38.5%
O=C(CCS(=O)(=O)c1cc(Br)cc2c1N(C(=O)C1CC1)CC2)N1CCN(c2ccccc2)CC1 -12.7%
CNC(=O)C1CCN(C(=O)N2CC(C)Oc3ccc(Cl)cc32)CC1 (stereo not drawn) -1.22%
CCOC(=O)C1CCCN(C(=O)c2ccccc2NC(=O)c2nsc3ccccc23)C1 (stereo not drawn) -4.64%
CCOc1ccc(C2CC(=O)c3c([nH]c(C(=O)OCCOc4ccccc4)c3C)C2)cc1 (stereo not drawn) -25.6%
Cc1nnc2c3ccccc3nc(N3CCN(c4ccccc4)CC3)n12 -11.9%
O=C(c1ccc2c(c1)N(Cc1cccc(Cl)c1)C(=O)c1ccccc1S2(=O)=O)N1CCCC1 -36.9%
Cc1ccccc1Cn1nnc2c(=O)[nH]c(C3CCCN(C(=O)c4ccc(C(C)(C)C)cc4)C3)nc21 (stereo not drawn) -27.3%
O=C(CSc1nc2ccsc2c(=O)n1-c1ccc(Br)cc1)NCc1ccccc1 -16.7%
COc1cc2ncnc(-n3nc(-c4ccccn4)nc3N)c2cc1OC -62.2%
O=C(CSc1nnc2scc(-c3ccccc3)n12)Nc1ccc(Cl)cc1 10.9%
O=C(Nc1cccc(C(F)(F)F)c1)Nc1cccs1 -4.68%
CCCCN(CC)C(=O)C1CCCN(c2ncnc3c2nc2n3CCCCC2)C1 (stereo not drawn) -18.7%
CCOc1ccc(CNC(=O)CCn2c(=O)c3cccn3c3ccc(F)cc32)cc1 -19.1%
CCOC(=O)c1ccc(NC(=O)c2ccc(CN3C(=O)CCn4nc(C)cc43)cc2)cc1 -6.49%
O=C(NCc1nc2ccccc2[nH]1)c1cccc(Cl)c1 -8.05%
O=C(Cn1c(=O)c2ccccc2n2nncc12)Nc1cccc(F)c1 -2.17%
CCc1cccc(C)c1NC(=O)CCCN1C(=O)C(c2ccccc2)Oc2cccnc21 (stereo not drawn) -28.5%
CCOC(=O)c1c(C)[nH]c(C)c1S(=O)(=O)N(C)CC(=O)NCc1cccc(Br)c1 -16.2%
COc1ccc(NC(=O)NCCn2nnc3cc(S(=O)(=O)N(C)C)ccc32)cc1 0.287%
Cc1ccccc1Cn1cnc2nc3c(cc2c1=O)CC(C)CC3 (stereo not drawn) 13.1%
CCc1cccc(C)c1NC(=O)CCCn1nc(C)c2sc3ccccc3c2c1=O -10.1%
Cc1cc(N2CCCCC2)nc2ccc(NC(=O)/C=C/c3ccc(OCCC(C)C)cc3)cc12 -0.484%
Cc1ccc2c(CNC3CCCC3)c(C(=O)O)n(Cc3ccc(F)cc3)c2c1 -8.74%
CN(C(=O)CSc1nc2ccccc2n1CC(=O)N(C)C1CCCCC1)c1ccccc1 -2.97%
O=C(O)c1ccc(O)c2ncc(N3CCOCC3)cc12 -2.52%
Cc1cccc(NC(=O)CN2C(=O)CCn3nc(-c4cccn4C)cc32)c1C -12.1%
COc1ccc(NC(=O)C2CCN(S(=O)(=O)c3cc(-c4noc(C)n4)ccc3C)CC2)cc1 -33.9%
Cc1ccc(C)c(NC(=O)c2cc(S(=O)(=O)NCCc3ccccc3)ccc2F)c1 -22.7%
CCOC(=O)C1CCCN(C(=O)c2ccc3c(c2)N(Cc2ccc(Cl)cc2)C(=O)c2ccccc2S3=O)C1 (stereo not drawn) -35.9%
